# In all, about 310,000 compounds went through this assay and about 2,200 (0.71%) showed an effect of 50% or more. Effects have a minus sign here. This is one part of the list.
# Biological target: human ether-à-go-go-related gene (hERG) potassium channel (human, UniProt Q12809)
# Assay: primary screen, population patch clamp on CHO cells stably expressing hERG
# human ether-à-go-go-related gene (hERG) potassium channel, sequence (Q12809 whole entry, looked up): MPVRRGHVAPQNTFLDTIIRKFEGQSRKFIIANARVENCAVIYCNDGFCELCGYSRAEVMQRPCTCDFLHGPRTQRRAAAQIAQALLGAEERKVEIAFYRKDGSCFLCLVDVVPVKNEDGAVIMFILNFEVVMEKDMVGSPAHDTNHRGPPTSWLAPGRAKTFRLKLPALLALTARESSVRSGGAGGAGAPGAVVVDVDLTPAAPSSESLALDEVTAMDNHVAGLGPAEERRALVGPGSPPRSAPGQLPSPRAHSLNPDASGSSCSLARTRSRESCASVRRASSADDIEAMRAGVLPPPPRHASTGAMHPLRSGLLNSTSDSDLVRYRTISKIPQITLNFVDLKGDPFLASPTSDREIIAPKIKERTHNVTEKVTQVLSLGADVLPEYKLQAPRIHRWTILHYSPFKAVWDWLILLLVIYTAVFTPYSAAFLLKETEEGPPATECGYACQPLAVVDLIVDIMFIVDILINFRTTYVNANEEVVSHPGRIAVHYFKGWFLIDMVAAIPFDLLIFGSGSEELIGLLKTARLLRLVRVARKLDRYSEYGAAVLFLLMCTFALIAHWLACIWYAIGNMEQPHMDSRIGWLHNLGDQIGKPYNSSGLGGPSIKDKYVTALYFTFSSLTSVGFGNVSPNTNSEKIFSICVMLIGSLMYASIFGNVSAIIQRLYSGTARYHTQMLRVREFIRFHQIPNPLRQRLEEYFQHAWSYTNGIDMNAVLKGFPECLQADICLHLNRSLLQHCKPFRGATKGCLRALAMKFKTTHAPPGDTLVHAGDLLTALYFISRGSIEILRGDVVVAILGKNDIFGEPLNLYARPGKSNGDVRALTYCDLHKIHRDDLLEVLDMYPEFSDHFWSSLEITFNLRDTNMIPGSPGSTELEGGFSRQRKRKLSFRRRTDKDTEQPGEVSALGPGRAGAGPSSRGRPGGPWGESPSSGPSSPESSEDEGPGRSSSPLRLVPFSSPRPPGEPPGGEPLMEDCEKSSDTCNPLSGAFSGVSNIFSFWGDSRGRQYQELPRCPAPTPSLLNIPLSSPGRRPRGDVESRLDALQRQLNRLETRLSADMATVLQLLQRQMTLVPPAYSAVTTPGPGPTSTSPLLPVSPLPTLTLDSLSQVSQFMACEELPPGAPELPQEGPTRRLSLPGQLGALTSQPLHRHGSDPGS
row,SMILES,"hERG current change (%, negative = inhibition) at 1uM"
1,Cc1cc(C)n2nc(SCC(=O)NC3CCCCC3C)nc2n1 (centres unmarked),13.9%
2,CC12CNCC(C)(CN(C3(O)C(=O)Nc4ccc(Br)cc43)C1)C2=O (centres unmarked),11.6%
3,O=C(NCc1cccs1)C(=O)NCC1OCCCN1S(=O)(=O)c1ccccc1 (centres unmarked),6.88%
4,C=CCn1c(Br)nc2c1c(=O)[nH]c(=O)n2C,-1.99%
5,O=C1CCCc2nc3c(cc21)C(O)Oc1ccccc1-3 (centres unmarked),4.74%
6,Cc1cccc(NC(=O)CCn2ccnc2C)c1,4.57%
7,CCCCCCn1c(C(C)O)nc2ccccc21 (centres unmarked),-3.7%
8,CCN(CC)S(=O)(=O)c1ccc(-c2nnc(SCC(N)=O)n2CC)cc1,20.4%
9,COc1ccc(CCN2CC(C(=O)NCCc3ccccc3)CC2=O)cc1OC (centres unmarked),12.9%
10,CC(=O)c1c(C)nn(C(=O)N2CCOCC2)c1C,3.6%
11,CCc1ccc2[nH]c(=O)c(CN(Cc3ccco3)C(=S)NCC3CCCO3)cc2c1 (centres unmarked),3.57%
12,Cc1nc(NC(=O)CC(C)C)sc1-c1csc(Nc2ccc(Cl)cc2Cl)n1,7.2%
13,Cc1ccc(CN(C)C(=O)COc2ccc(S(=O)(=O)N3CCCC3)cc2[N+](=O)[O-])c(C)c1,9.34%
14,Cc1cc(OC(C)C(=O)NCc2ccncc2)c2c(C)cc(=O)oc2c1 (centres unmarked),-0.612%
15,Cc1ccccc1N1CCN(C2CCCN(C(=O)CCN3CCCCO3)C2)CC1 (centres unmarked),-5.43%
16,Cc1cc(N(CCCl)CCCl)ccc1/C=N/N=C(\N)c1cnccn1,5.65%
17,Cc1cc(C)n2nc(SCC(=O)N(CCC#N)c3ccc(F)cc3)nc2n1,6.78%
18,CC1CCCC(NC(=O)CCCn2c(=O)[nH]c3cc(Cl)ccc3c2=O)C1C (centres unmarked),12.7%
19,C=CCNc1nc(NCc2ccco2)nc(OCC)n1,5.62%

row,SMILES,"hERG current change (%, negative = inhibition) at 1uM"
1,CC1CN(C(=O)CCS(=O)(=O)c2ccccc2)CC(C)O1 (centres unmarked),18.4%
2,O=C(NCCN1CCCCCC1)C1CCC(CNS(=O)(=O)c2cccc3cccnc23)CC1 (centres unmarked),0.919%
3,CC(O)c1nc2ccccc2n1C(C)c1ccccc1 (centres unmarked),15.5%
4,CCNC(=O)COC(=O)CCNC(=O)c1cccc(C)c1,0.0285%
5,N#C/C(=C\c1cn(CCOc2ccccc2)c2ccccc12)C(=O)NCC1CCCO1 (centres unmarked),-1.18%
6,Cc1ccc(N2CC(C(=O)OCC(=O)c3ccc[nH]3)CC2=O)cc1 (centres unmarked),-0.975%
7,O=C(/C=C/c1ccccc1)N1CCN(CCN2C(=O)c3cccc4cccc(c34)C2=O)CC1,1.77%
8,O=C(O)c1ccccc1-c1cn2cc(Cl)ccc2n1,14.8%
9,Cc1ccc(OCCCCN2CCc3ccccc3C2)c(C)c1.Cl,12.5%
10,COc1cc(C(C(=O)NCc2ccccc2)N(C(=O)c2snc(C(N)=O)c2N)C2CCCC2)cc(OC)c1OC (centres unmarked),0.544%
11,CCN1C(c2ccccc2)=C(c2ccccc2)S/C1=C\C=C1/SC(=S)N(C)C1=O,14.9%
12,Cc1ccc(NC(=S)N/N=C2/CCCc3c(C)cc(C)cc32)cc1,-14.1%
13,Cc1ccc(CN(c2ccc(C(=O)Nc3cccnc3)cc2)S(C)(=O)=O)cc1,-1.43%
14,O=C(C1CCC(C(=O)N2CCCCC2)CC1)N1CCCCC1 (centres unmarked),13.8%
15,CCNC(=S)N(Cc1ccccc1)Cc1nc2ccccc2c(=O)[nH]1,-4.75%
16,COC(=O)c1sc(N)c(C(=O)OC)c1CSc1nnnn1C,-6.31%
17,NC(=O)c1ccc(-c2nnn(CC(=O)N(C3CCCCC3)C3CCS(=O)(=O)C3)n2)cc1 (centres unmarked),9.79%
18,Cc1ccc(C(C)C)c(OCCN2CCc3ccccc3C2)c1.Cl,16.1%
19,CCCOc1ccc(Cc2c(Cl)nc(SC)nc2NC)cc1,10.6%

row,SMILES,"hERG current change (%, negative = inhibition) at 1uM"
1,COc1ccc2cc(C#N)c(Nc3cccc(F)c3)nc2c1,11.7%
2,Cc1ccc(NC(=S)N/N=C/c2c(C)nn(-c3ccccc3)c2N2CCCC2)cc1,16.3%
3,O=C(Oc1c(-c2ccccc2)c(=O)n2c3c(cccc13)CC2)c1cccc([N+](=O)[O-])c1,9.63%
4,CCOC(=O)c1sc(N2N=C(C)/C(=C\c3ccc(OCC(=O)OC)cc3)C2=O)nc1C,19%
5,Cc1ccc(NS(=O)(=O)c2ccc3c(c2)NC(=O)CCS3)c(Br)c1,8.73%
6,O=S(=O)(/N=C(/Nc1ccc(F)cc1F)c1ccccc1)c1ccc(Br)cc1,8.34%
7,O=C(O)c1ccc(NS(=O)(=O)c2cccc3nsnc23)cc1,5.69%
8,Cc1ccc(CCCOC(=O)C[N+]2(C)CCCCC2)cc1.[I-],3.78%
9,O=C(Nc1ncc(Br)s1)C(Cc1ccccc1)n1cccc1 (centres unmarked),11.5%
10,Cc1nc2ccccc2c(=O)n1/N=C/c1ccc2ccccc2c1O,4.82%
11,COc1ccccc1CNC(=O)c1sccc1-c1ccccc1,11.2%
12,CN(Cc1nc(-c2cnccn2)no1)Cc1n[nH]c2c1CCCCC2,11.1%
13,C=C1CCN([C@@H](CC(C)C)C(=O)NCc2ccco2)S(=O)(=O)c2ccccc21,9.17%
14,COc1ccc(-c2noc(CN3C(=O)c4ccccc4C3=O)n2)cc1,2.83%
15,CC(C)CNC(=S)N1CCC(NC(=O)c2ccco2)CC1,6.82%
16,O=C(O)c1cc2nc(-c3ccccc3)cc(C(F)(F)F)n2n1,6.73%
17,COC(=O)C1=C(C)N(CCc2ccc(OC)c(OC)c2)C(=O)/C1=C\c1ccc(O)cc1,6.71%
18,Cc1cc(C(=O)CSc2nncs2)c(C)n1-c1ccc2c(c1)OCO2,9.18%
